Reference: PubChem BioAssay AID624296 (National Center for Advancing Translational Sciences (NCATS), 2012)
In all, about 350,000 compounds went through this assay and about 9,900 (2.8%) were called active. The inconclusive results got no clear call from the source; some entries with a clear call stand among them for comparison. The call rests on the fitted dose curve; in most records, active means well fitted activation curve with a large enough effect; inconclusive means small, poorly fitted or top-dose-only effect; inactive means no such curve, though single readings can be large or run the other way. Potencies of inconclusive entries are left out as doubtful fits.

Assay: A quantitative high throughput screen for small molecules that induce DNA re-replication in MCF 10a normal breast cells. Further: nearly all actives have a fitted effect of over 50% in size. On activity, positive = re-replication: % of control where 0% means no effect.
Conditions: MCF 10A DNA re-replication, Hoechst nuclear intensity, 48 h; activity, positive = re-replication: at 46.1 µM (top of the series)
Potency means the concentration at half of the fitted maximal effect; tags describe the fitted curve by direction and shape.

Row | Compound | activity, positive = re-replication | Potency
1 | O=C(c1ccco1)N1CCN(C(c2coc3ccc(Cl)cc3c2=O)c2nnnn2C2CCCC2)CC1 (stereo not drawn) | inactive: 1.11% | 
2 | CN(C)NC(=S)Nc1ccc(Cl)cc1 |  | inconclusive [activator, single point]
3 | OCc1cccc[n+]1Cc1ccccc1 | inactive: 0.309% | 
4 | CCN(CC)c1nc(-c2ccccc2)nc2ccccc12 |  | inconclusive [activator, single point]
5 | O=C(Nc1ccc2c(c1)OCO2)c1ccccn1 |  | inconclusive [activator, partial curve, poor fit]
6 | Cc1cc(Oc2ccc(C)c(Cl)c2)nc(SCC(=O)c2ccccc2)n1 |  | inconclusive [activator, single point]
7 | COc1ccc(C(=O)NNC2=C(C(=O)C(F)(F)F)CCC2)cc1 |  | inconclusive [activator, single point]
8 | CC1c2ccccc2SC(CCCN(C)C)c2ccccc21 (stereo not drawn) |  | inconclusive [activator, single point]
9 | CN(Cc1nc2ccccc2c(=O)[nH]1)C(=O)c1cccc(NC(=O)c2cccs2)c1 |  | inconclusive [activator, single point]
10 | O=C(NCCN1CCOCC1)c1ccc(Cl)c(S(=O)(=O)NCc2ccccc2)c1 | inactive: 14.3% | 
11 | CCCCOc1ccc(Nc2cc(Cl)ccc2C(=O)O)cn1 |  | active: 16.4 µM
12 | O=C(NCCc1ccccc1)c1ccc2c(c1)S(=O)(=O)c1cc(Cl)ccc1C2=O |  | inconclusive [activator, partial curve, poor fit]
13 | COc1ccc(CNCCC(c2ccccc2)c2ccc(OC(C)C)cc2)cc1OC (stereo not drawn) |  | inconclusive [activator, single point]
14 | Cc1ccc2cc(C)c(N3CCC(C)CC3)nc2c1 |  | inconclusive [activator, single point]
15 | C=CC[C@@H](CC(=O)N(CCO)Cc1ccccc1)C(=O)N[C@H](COC(=O)[C@@H](CC=C)Cc1ccc(F)cc1)Cc1ccccc1 |  | inconclusive [activator, partial curve, poor fit]
16 | Cc1cc(C)nc(N/N=C/c2cccc(Cl)c2)n1 | inactive: -6.16% | 
17 | COc1ccc(CNC(=O)C2CCCN(c3ncnc4c3nc3n4CCCCC3)C2)cc1 (stereo not drawn) | inactive: 1.08% | 
18 | CCC(C)c1ccc2oc(-c3ccc(NC(=O)c4ncn[nH]4)cc3)nc2c1 (stereo not drawn) |  | inconclusive [activator, partial curve, poor fit]
19 | N#CCC(=O)N/N=C/c1c(-c2ccccc2)n(-c2ccccc2)c2ccccc12 |  | inconclusive [activator, single point]
20 | O=C(N/N=C/c1cccnc1)c1cc(-c2ccccc2OCc2ccccc2)n[nH]1 |  | active: 14.6 µM
21 | O=S(=O)(c1ccccc1)N1CCC2(CC1)CO2 | inactive: 3.57% | 
22 | COCCNC(=O)[C@@H]1CCCN1C(=O)C1CCN(S(=O)(=O)c2ccc(C)cc2)CC1 | inactive: -0.499% | 
23 | COc1cccc(CNCC(O)(c2ccc(Cl)cc2)c2ccc(Cl)cc2)c1 |  | inconclusive [activator, single point]

Row | Compound | activity, positive = re-replication | Potency
24 | Cc1c(-c2ccccc2)nc(-c2ccccc2)[nH]c1=O | inactive: -56.4% | 
25 | O=C(CCN1CCCCC1)Nc1cccc(Br)c1 |  | inconclusive [activator, partial curve, poor fit]
26 | CCCCc1ccc(NC(=O)CN2C(=O)C3CCCCC3C2=O)cc1 (stereo not drawn) |  | inconclusive [activator, partial curve, poor fit]
27 | COc1cc(/C=C2\S/C(=N/S(=O)(=O)c3ccccc3)NC2=O)c([N+](=O)[O-])cc1OC |  | inconclusive [activator, single point]
28 | CCOC(=O)C1CCN(S(=O)(=O)c2ccc(C(=O)OC)cc2)CC1 |  | inconclusive [activator, single point]
29 | CC(C)Cc1ccc(CN2CCCC(NC(=O)c3nn(C)c(=O)c4ccccc34)C2)cc1 (stereo not drawn) |  | active: 20.6 µM
30 | CN(C)CCCNC(=O)c1cc(C(=O)c2ccccc2)c[nH]1 | inactive: 4.21% | 
31 | Cc1oc(-c2ccccc2)nc1Cn1cccc1C1=NC(c2ccccc2)CO1 (stereo not drawn) |  | inconclusive [activator, partial curve]
32 | COc1ccc(C(=O)/C=C/c2ccc(OC)c(COc3ccccc3F)c2)cc1 | inactive: 4.37% | 
33 | CCOCCc1nnc(NC(=O)c2ccc(OC)c(OC)c2)s1 |  | inconclusive [activator, partial curve, poor fit]
34 | COC(=O)NNC(=O)c1ccc(Cl)cc1Cl |  | inconclusive [activator, partial curve, poor fit]
35 | CCCCn1c(NC(=S)Nc2ccccc2)nc2ccccc21 |  | inconclusive [activator, single point]
36 | Cc1oc(-c2cccc3ccccc23)nc1CN1CCN(c2ncnc3ccccc23)CC1 |  | inconclusive [activator, single point]
37 | Cc1nc2nc(Cc3ccccc3)[nH]n2c(=O)c1Cc1ccccc1 |  | inconclusive [activator, partial curve, poor fit]
38 | CC(C)NCCCOc1ccc(C(C)(C)c2ccccc2)cc1 |  | inconclusive [activator, single point]
39 | COc1ccccc1/C=C/C(=O)c1ccc(Cl)cc1 |  | inconclusive [activator, single point]
40 | COc1ccc(N(CC(=O)NC2CCCCC2)C(=O)c2snc(C(N)=O)c2N)cc1 |  | inconclusive [activator, partial curve, poor fit]
41 | Cc1c(C(=O)NCCSCc2ccccc2)cccc1[N+](=O)[O-] | inactive: 11% | 
42 | COc1cc(S(=O)(=O)N2CCOCC2)cc(C(=O)c2nccn2C)c1OC |  | inconclusive [activator, single point]
43 | O=C(N/N=C/c1ccccn1)c1ccc2nc[nH]c2c1 |  | inconclusive [activator, full curve, poor fit]
44 | CCC1=Nc2cc(C(=O)NCCCN3CCOCC3)ccc2Sc2ccccc21 |  | inconclusive [activator, full curve, poor fit]
45 | O=C(O)c1cccc(NC(=O)c2cccc(S(=O)(=O)N3CCCCC3)c2)c1 |  | inconclusive [activator, full curve, poor fit]
46 | CCOC(=O)c1ccc(NC(=O)COc2ccc(CNC3CCCCC3)cc2OC)cc1 |  | inconclusive [activator, partial curve, poor fit]

Row | Compound | activity, positive = re-replication | Potency
47 | CC(=O)C1=C(O)C(=O)N(c2ccc(Br)cc2)C1c1ccccc1[N+](=O)[O-] (stereo not drawn) |  | inconclusive [activator, single point]
48 | COc1ccc(CC(=O)N/N=C(\C)CC(=O)Nc2cccc(F)c2)cc1 | inactive: 8.87% | 
49 | CCCCn1cnc2c(SCc3ccc(Br)cc3)nc(N)nc21 |  | inconclusive [activator, single point]
50 | Cc1ccc(C)c(Nc2c([N+](=O)[O-])c(=O)oc3ccccc23)c1 |  | inconclusive [activator, single point]
51 | O=c1[nH]c2ccc(Cl)cc2c(-c2ccccc2)c1CN1CCOCC1 | inactive: 173% | 
52 | Cc1ccc(SCC(=O)N2N=CCC2c2ccccc2)cc1 (stereo not drawn) |  | inconclusive [activator, partial curve, poor fit]
53 | C/C(=N/NC(=O)c1ccc(-c2ccccc2)cc1)c1cc(O)cc(O)c1 | inactive: 20.3% | 
54 | Cc1ccc(C(=O)Nc2ccc3c(c2)C(=O)NC3=O)cc1 |  | inconclusive [activator, partial curve, poor fit]
55 | COc1ccc(CC(=O)NCc2cccs2)cc1 |  | inconclusive [activator, single point]
56 | Cc1ccc(C(=O)Nc2nc(C)c(C(=O)Nc3ccc4c(c3)CCC4)s2)cc1 |  | active: 1.03 µM
57 | COC(=O)c1ccc(C(=O)NC2CCCc3c2cnn3-c2ccccc2F)nc1 (stereo not drawn) |  | active: 14.6 µM
58 | Nc1c2c(nc3sc4c(c13)CCCC4)-c1ccccc1CC2 |  | inconclusive [activator, partial curve, poor fit]
59 | CC1(C)CC(=O)C2=C(C1)N(N1CCOCC1)C(N)=C(C#N)C2c1cccnc1 (stereo not drawn) | inactive: -2.09% | 
60 | C[C@@H]1CN([C@H](C)CO)C(=O)c2cc(NS(=O)(=O)c3cn(C)cn3)ccc2O[C@H]1CN(C)C(=O)Nc1ccccc1 | inactive: 6.79% | 
61 | CCOCc1c(C(=O)OCC(=O)NCc2ccc(F)cc2)oc2ccccc12 | inactive: 6.78% | 
62 | CCN1CCN(c2ccc(S(=O)(=O)N3CCCCC3)cc2NC(=O)c2cccc(OC(F)F)c2)CC1 | inactive: 7.11% | 
63 | O=C(O)c1cc(-c2ccc(/C=C3\NC(=O)N(c4ccc(Cl)cc4)C3=O)o2)ccc1Cl |  | inconclusive [activator, single point]
64 | N=C1C(c2ccccc2)=C(O)CN1c1ccc2c(c1)OCO2 |  | active: 16.4 µM
65 | COc1ccc(/C=C2\Sc3ccc(C(=O)NC4CC4)cc3N(C)C2=O)cc1OC |  | inconclusive [activator, single point]
66 | Clc1ccc(CN=C(Nc2ccccc2)NC2CCCCC2)cc1 |  | inconclusive [activator, single point]
67 | Cc1cc(C2C(C#N)=C(N)Oc3n[nH]c(C)c32)c(C)s1 (stereo not drawn) |  | inconclusive [activator, single point]
68 | CCN(CC)S(=O)(=O)c1ccc(S(=O)(=O)N(CC(=O)Nc2ccccc2)CC2CCCO2)cc1 (stereo not drawn) |  | inconclusive [activator, single point]
